{"source": "paper PMC3791464", "about": "(eLife, 2013)", "target": "T1, S. cerevisiae MBP–Orc3 (S. cerevisiae), P54790", "T1 chain": "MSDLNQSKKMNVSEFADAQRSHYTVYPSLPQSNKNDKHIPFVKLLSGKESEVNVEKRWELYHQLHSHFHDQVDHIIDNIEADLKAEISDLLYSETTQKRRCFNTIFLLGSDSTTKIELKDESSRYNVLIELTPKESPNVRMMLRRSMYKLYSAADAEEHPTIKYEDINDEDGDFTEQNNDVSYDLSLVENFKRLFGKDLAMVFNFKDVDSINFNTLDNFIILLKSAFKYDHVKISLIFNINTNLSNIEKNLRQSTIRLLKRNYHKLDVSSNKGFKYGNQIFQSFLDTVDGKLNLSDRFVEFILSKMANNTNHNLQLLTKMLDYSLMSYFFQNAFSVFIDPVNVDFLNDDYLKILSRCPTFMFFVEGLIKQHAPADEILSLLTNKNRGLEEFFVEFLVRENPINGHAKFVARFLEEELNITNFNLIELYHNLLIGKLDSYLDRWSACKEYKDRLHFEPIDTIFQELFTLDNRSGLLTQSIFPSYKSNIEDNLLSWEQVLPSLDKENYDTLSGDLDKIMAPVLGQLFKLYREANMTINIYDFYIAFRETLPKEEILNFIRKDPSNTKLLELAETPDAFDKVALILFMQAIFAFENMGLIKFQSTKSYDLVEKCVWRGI", "assay": "pull-down; N-terminally MBP-tagged bait and N-terminally 6×His-tagged prey (with further ORC subunits where named) co-expressed in High5 cells by baculovirus co-infection; clarified lysate (50 mM Tris HCl pH 7.8, 300 mM KCl, 10% glycerol, 1 mM DTT; 0.78 M ammonium sulfate step) on amylose beads, three washes; Coomassie-stained SDS-PAGE, anti-His Western blot for some preys", "settings": "remark: other sources report otherwise", "note": "These are yes or no findings as the source states them, for the method shown. In cells and extracts the contact can be indirect. Some entries that bind do so weakly or less than the wild type. Tags and fused reporters may be left off the sequences shown."}
{"binder": "S. cerevisiae Orc6 wild type, His-tagged, P38826 1-435 (protein) MSMQQVQHCVAEVLRLDPQEKPDWSSGYLKKLTNATSILYNTSLNKVMLKQDEEVARCHICAYIASQKMNEKHMPDLCYYIDSIPLEPKKAKHLMNLFRQSLSNSSPMKQFAWTPSPKKNKRSPVKNGGRFTSSDPKELRNQLFGTPTKVRKSQNNDSFVIPELPPMQTNESPSITRRKLAFEEDEDEDEEEPGNDGLSLKSHSNKSITGTRNVDSDEYENHESDPTSEEEPLGVQESRSGRTKQNKAVGKPQSELKTAKALRKRGRIPNSLLVKKYCKMTTEEIIRLCNDFELPREVAYKIVDEYNINASRLVCPWQLVCGLVLNCTFIVFNERRRKDPRIDHFIVSKMCSLMLTSKVDDVIECVKLVKELIIGEKWFRDLQIRYDDFDGIRYDEIIFRKLGSMLQTTNILVTDDQYNIWKKRIEMDLALTEPL", "values": [{"measurement": "binding", "value": "binds"}]}
